The other results are listed elsewhere or left out.
B1: PhoQ; a variant is named by its letters at X, in order, P23837 (parent)
chain: MKKLLRLFFPLSLRVRFLLATAAVVLVLSLAYGMVALIGYSVSFDKTTFRLLRGESNLFYTLAKWENNKLHVELPENIDKQSPTMTLIYDENGQLLWAQRDVPWLMKMIQPDWLKSNGFHEIEADVNDTSLLLSGDHSIQQQLQEVREDDDDAEMTHSVAVNVYPATSRMPKLTIVVVDTIPVELKSSYMVWSWFIYVLSANLLLVIPLLWVAAWWSLRPIEALAKEVRELEEHNRELLNPATTRELTSLVRNLNRLLKSERERYDKYRTTLTDLTHSLKTPLXXLQXXLRSLRSEKMSVSDAEPVMLEQISRISQQIGYYLHRASMRGGTLLSRELHPVAPLLDNLTSALNKVYQRKGVNISLDISPEISFVGEQNDFVEVMGNVLDNACKYCLEFVEISARQTDEHLYIVVEDDGPGIPLSKREVIFDRGQRVDTLRPGQGVGLAVAREITEQYEGKIVAGESMLGGARMEVIFGRQHSAPKDE

Variants of: B1
Assay: enrichment ratio after two sorts for PhoP signalling (ratio (wild type AVST 3.29)); higher = more functional
Conditions: with PhoP (E. coli)

Row | Variant | enrichment ratio
1 | KITH | 3.09
2 | QLYA | ≤ 0.25
3 | MGVS | ≤ 0.25
4 | SENG | 1.31
5 | YDSK | ≤ 0.25
6 | DYWF | ≤ 0.25
7 | VGFL | 0.317
8 | FTYD | ≤ 0.25
9 | RNIA | ≤ 0.25
10 | PQMD | ≤ 0.25
11 | REFC | ≤ 0.25
12 | ALFS | ≤ 0.25
13 | TLVF | ≤ 0.25
14 | AQYY | ≤ 0.25
15 | WQVG | ≤ 0.25
16 | MCRK | ≤ 0.25
17 | PQLI | ≤ 0.25
18 | PGNY | ≤ 0.25
19 | DRCD | ≤ 0.25
20 | IIFA | ≤ 0.25
21 | DWPQ | ≤ 0.25
22 | AGVS | 1.15
23 | LIPL | ≤ 0.25
24 | VFIP | ≤ 0.25
25 | LEVK | ≤ 0.25

Row | Variant | enrichment ratio
26 | GSLG | 6.29
27 | YQQL | ≤ 0.25
28 | KNAD | ≤ 0.25
29 | KSMY | ≤ 0.25
30 | GLNM | ≤ 0.25
31 | VWNS | ≤ 0.25
32 | MPCA | ≤ 0.25
33 | GPLT | ≤ 0.25
34 | AGQA | ≤ 0.25
35 | PDNW | ≤ 0.25
36 | YETA | ≤ 0.25
37 | WPIA | ≤ 0.25
38 | QHPT | ≤ 0.25
39 | HTMN | ≤ 0.25
40 | LDML | ≤ 0.25
41 | LKQA | ≤ 0.25
42 | PGVH | ≤ 0.25
43 | NPVV | ≤ 0.25
44 | HPPP | ≤ 0.25
45 | IRFY | ≤ 0.25
46 | EFQD | ≤ 0.25
47 | LAIA | ≤ 0.25
48 | NYDV | ≤ 0.25
49 | HDST | ≤ 0.25
50 | TWRT | ≤ 0.25

Row | Variant | enrichment ratio
51 | RMGK | ≤ 0.25
52 | CCLF | ≤ 0.25
53 | DYCY | ≤ 0.25
54 | HQQK | ≤ 0.25
55 | HGFQ | ≤ 0.25
56 | SYEW | ≤ 0.25
57 | KAKD | ≤ 0.25
58 | PFEQ | ≤ 0.25
59 | IHMG | ≤ 0.25
60 | SFRI | ≤ 0.25
61 | SNSE | 16.4
62 | WLKR | ≤ 0.25
63 | VNQH | ≤ 0.25
64 | KLWI | ≤ 0.25
65 | YQKD | ≤ 0.25
66 | TADK | ≤ 0.25
67 | DICT | ≤ 0.25
68 | VVRY | ≤ 0.25
69 | MPRM | ≤ 0.25
70 | MFKG | ≤ 0.25
71 | VVFW | ≤ 0.25
72 | AVGL | 3.84
73 | TYRH | ≤ 0.25
74 | KEKV | ≤ 0.25
75 | QHMH | ≤ 0.25

Row | Variant | enrichment ratio
76 | SEHN | ≤ 0.25
77 | RVLM | ≤ 0.25
78 | FNQM | ≤ 0.25
79 | LQDK | ≤ 0.25
80 | QCHW | ≤ 0.25
81 | KGMT | ≤ 0.25
82 | AFFS | ≤ 0.25
83 | YYCD | ≤ 0.25
84 | WPLV | ≤ 0.25
85 | TWSY | ≤ 0.25
86 | DKHG | ≤ 0.25
87 | KDSY | ≤ 0.25
88 | EFHC | ≤ 0.25
89 | HRAY | ≤ 0.25
90 | KPIV | ≤ 0.25
91 | VCTK | ≤ 0.25
92 | VMAC | ≤ 0.25
93 | RFQW | ≤ 0.25
94 | SEKN | ≤ 0.25
95 | ELWY | ≤ 0.25
96 | TLPP | ≤ 0.25
97 | DVRP | ≤ 0.25
98 | NHKD | ≤ 0.25
99 | TFHH | ≤ 0.25
100 | HSDK | ≤ 0.25

Row | Variant | enrichment ratio
101 | NESL | ≤ 0.25
102 | GSLF | 11.4
103 | YHDC | ≤ 0.25
104 | EYWV | ≤ 0.25
105 | YSYI | ≤ 0.25
106 | AQML | 24.2
107 | NWVW | ≤ 0.25
108 | DSHA | ≤ 0.25
109 | KDIG | ≤ 0.25
110 | QVKP | ≤ 0.25
111 | SMGF | 10.1
112 | IVFQ | ≤ 0.25
113 | MREA | ≤ 0.25
114 | SGYN | ≤ 0.25
115 | QISE | ≤ 0.25
116 | NSIE | ≤ 0.25
117 | KQIH | ≤ 0.25
118 | EPCI | ≤ 0.25
119 | YHCW | ≤ 0.25
120 | MSWG | 5.88
121 | EYCY | ≤ 0.25
122 | MDMF | ≤ 0.25
123 | IPKM | ≤ 0.25
124 | TQPM | ≤ 0.25
125 | DCPC | ≤ 0.25

Row | Variant | enrichment ratio
126 | MWST | ≤ 0.25
127 | VSYS | ≤ 0.25
128 | RHVE | ≤ 0.25
129 | YRCC | ≤ 0.25
130 | GCKS | ≤ 0.25
131 | QNDV | ≤ 0.25
132 | FWVS | ≤ 0.25
133 | TGCH | 10.6
134 | DNCW | ≤ 0.25
135 | DNEA | ≤ 0.25
136 | YRGQ | ≤ 0.25
137 | RRIE | ≤ 0.25
138 | PKTA | ≤ 0.25
139 | ELNR | ≤ 0.25
140 | FSFF | ≤ 0.25
141 | IQAR | ≤ 0.25
142 | HRHC | ≤ 0.25
143 | TDCK | ≤ 0.25
144 | MTFV | ≤ 0.25
145 | YFCG | ≤ 0.25
146 | QCQF | ≤ 0.25
147 | NIQF | ≤ 0.25
148 | LWQW | ≤ 0.25
149 | RCKV | ≤ 0.25
150 | LTSF | ≤ 0.25

Row | Variant | enrichment ratio
151 | RPSR | 0.252
152 | IGWE | ≤ 0.25
153 | NLNM | ≤ 0.25
154 | NEYI | ≤ 0.25
155 | YDHS | 0.674
156 | INAL | ≤ 0.25
157 | ITTT | ≤ 0.25
158 | HIPE | ≤ 0.25
159 | DFLM | ≤ 0.25
160 | YQFD | ≤ 0.25
161 | KYYW | ≤ 0.25
162 | SRSK | ≤ 0.25
163 | WNPN | ≤ 0.25
164 | HGVR | ≤ 0.25
165 | LPDK | ≤ 0.25
166 | FGIT | ≤ 0.25
167 | FLHT | ≤ 0.25
168 | EVKG | ≤ 0.25
169 | DSVG | ≤ 0.25
170 | LWTI | ≤ 0.25
171 | TLGI | 4.86
172 | LKCW | ≤ 0.25
173 | TRFS | ≤ 0.25
174 | DAKL | ≤ 0.25
175 | FQVK | ≤ 0.25

Row | Variant | enrichment ratio
176 | SPKQ | ≤ 0.25
177 | LSWE | ≤ 0.25
178 | WLLN | ≤ 0.25
179 | FPKV | ≤ 0.25
180 | ICVS | ≤ 0.25
181 | WERS | ≤ 0.25
182 | YHLM | 0.877
183 | QKTA | ≤ 0.25
184 | AHFN | ≤ 0.25
185 | RNMR | ≤ 0.25
186 | VWQR | ≤ 0.25
187 | SDEQ | ≤ 0.25
188 | GEDT | ≤ 0.25
189 | QIGY | ≤ 0.25
190 | EMKL | ≤ 0.25
191 | GDFV | ≤ 0.25
192 | GHGH | ≤ 0.25
193 | MNKQ | ≤ 0.25
194 | NQYV | ≤ 0.25
195 | GRMV | ≤ 0.25

Source: a collection of fitness landscapes (doi:10.1126/science.1257360)
